Source: article PMC12136788
This is one part of the list.

B1: chr3:122768741:122768856:-|CDS|ENSG00000169087|unk|total|mutant (ssRNA)
RNA: GGGAGUUCUACAGUCCGACGAUCACAUGUAAUUACGCCGAAGCUACACUCGAAGAGUUUCUGACCUGGAACUGUGACCAGUCCCGUAUUUCUGGACCAUUCCGAGAUUAUGACCAUUCCAAGUUCUGGGCUUAUGCUGACUAUCAACAGAGGAUUGAGCAUCA
B2: chr1:54850123:54850236:-|3pUTR|ENSG00000116133|msi1_unk|total|mutant (ssRNA)
RNA: GGGAGUUCUACAGUCCGACGAUCGCCUCCAACCCUAAGCCACUGGGACGGUGGCCAGAGAUGCCAGCAGCCUCUGUCGCCCUCCGUCAUAUAACCAAAAUCCAGACCUUAUCCACAACCCGGGGCUUGGAAAGGAAGGUAUUUCAACAGAGGAUUGAGCAUCA
B3: ENSG00000112365:stop:overlap|stop_codon|ENSG00000112365|stop_codon|NA|stop_codon (ssRNA)
RNA: GGGAGUUCUACAGUCCGACGAUCUCUACACACUGGCAAGAAGCCUUUCUCCUGCCCUGAGUGUAACUUACAGUUUGCUCGCUUAGACAACUUGAAGGCUCACUUGAAAAUUCAUAGCAAGGAGAAGCAUGCUUCAGAUGCCAGCAACAGAGGAUUGAGCAUCA
B4: chr12:132722103:132722204:+|3pUTR|ENSG00000247077|msi1|total|mutant (ssRNA)
RNA: GGGAGUUCUACAGUCCGACGAUCGCUUCGCCUUUGACCUUCAUGCUGGUCUCGGCUGAGGUGACACGCCCGUGACAGCCCAACCGGGGGUUACCCUUAUUGAGUAAAAUACUUCAGAUUGACAGCUCAAUCUCCGUUUGCCUCCAACAGAGGAUUGAGCAUCA
B5: chr17:47658542:47658643:+|CDS|ENSG00000108424|unk|total|mutant (ssRNA)
RNA: GGGAGUUCUACAGUCCGACGAUCGAUUCUGACUGCCAUAAUCCAGGGGAUGAGGAAAGAAGAGCCCCGUAAUAAUGUGAAGCCCGCUGCUACGAAUGCACUCCUGAACUCAUUGGAGUUCACCAAAGCAAACUUUGAUAAAGACAACAGAGGAUUGAGCAUCA
B6: chr21:42850051:42850242:-|CDS|ENSG00000160193|control|control|control (ssRNA)
RNA: GGGAGUUCUACAGUCCGACGAUCCACGUUCGACAACGUGACCUCCUACCUGAAGAAGAAAGAGGAGAGACUGCAGCAGCAGCUAGAGAAGAAGCAGCGGCGCCGGAGUCCCCCGCCUGGGCCCGACGGGCAUGCCAAGAAGAUCAACAGAGGAUUGAGCAUCA
B7: chr10:62096657:62096758:+|3pUTR|ENSG00000150347|msi1|FALSE|unique (ssRNA)
RNA: GGGAGUUCUACAGUCCGACGAUCACCUCUAUGCUCUGUAAGGUGAUUAUUUGUAUAUAGCAACAUGGCCCAGUGAUAUUAUAUAGUUUCCCAAUGGAGAGGUUAUUGAGUAACCUUUGCAUUAGUUUAAACACUACCAGAAGACAACAGAGGAUUGAGCAUCA
B8: chr2:240467872:240467977:+|3pUTR|ENSG00000063660|msi1|total|mutant (ssRNA)
RNA: GGGAGUUCUACAGUCCGACGAUCCUCUGGCACAGUGAUGCCGGGCGCCAGGACAGCAGCACUCCCGCUGCACACAGACGGCCCCGGGGUGGCGCUCAGACCCCACCCUACGCUCAUCUCUGGAAGGGGCAGCCCUGAGUGGUCCAACAGAGGAUUGAGCAUCA
B9: ENSG00000127022:stop:overlap|stop_codon|ENSG00000127022|stop_codon|NA|stop_codon (ssRNA)
RNA: GGGAGUUCUACAGUCCGACGAUCACACAUUUUGUUUUACCAAGCUGAAGGUACAUUUAUGUAAAGGGAAUAUUUUAAUAGGGUAGUUUACAGUGGCUUAUGGCAGUAAAAAUUCUGUUAAAGCCAAUUUUGUUGAAGUGGGAUCAACAGAGGAUUGAGCAUCA
B10: chr17:59607285:59607386:+|3pUTR|ENSG00000108406|unk|total|mutant (ssRNA)
RNA: GGGAGUUCUACAGUCCGACGAUCUAAAUCAAAGCUCAUCAGUUCCCAUAAAUGCAGUUGUCAAAGAAAAGAUUUGGUUGCCACCGUCAUAAGCAAUGAUACAUGAAACCAAUGAAAGACAGUACAUGUAAUAAUAUUUUCCUCCAACAGAGGAUUGAGCAUCA
B11: chr14:67336187:67336738:-|three_prime_utr|ENSG00000100554|control|control|control (ssRNA)
RNA: GGGAGUUCUACAGUCCGACGAUCGUCAAGUAUGAUUUGAUUUAAUUUGAUCUUUAUAUUUUAAGAAUUACGUACUGCCUUUCUAGGAGGCAAAAAUUAGUUUGAAGUAGGGAUCCAGAUUAGUGGUUUUCCACAUGUAGGUAACAACAGAGGAUUGAGCAUCA
B12: chr1:23094017:23094118:-|CDS|ENSG00000169641|unk|FALSE|unique (ssRNA)
RNA: GGGAGUUCUACAGUCCGACGAUCCUCCAGAAAGCAGAGGAUGAACUCCUGGAUCUCCAGGACAAGGUGAUUCAGGCAGAAGGUAGCAACUCCAGCAUGUUGGCGGAGAUUGAAGUGCUGCGCCAGCGGGUGCUGAGAAUUGAACAACAGAGGAUUGAGCAUCA
B13: chr1:116393555:116393656:+|CDS|ENSG00000163399|msi1|FALSE|unique (ssRNA)
RNA: GGGAGUUCUACAGUCCGACGAUCCCCCAACACAUCGGAGCCCCAACACCUGUUGGUGAUGAAGGGCGCCCCAGAAAGGAUCCUAGACCGUUGCAGCUCUAUCCUCCUCCACGGCAAGGAGCAGCCCCUGGAUGAGGAGCUGAACAACAGAGGAUUGAGCAUCA
B14: chr3:11298707:11298833:+|CDS|ENSG00000197548|unk|total|mutant (ssRNA)
RNA: GGGAGUUCUACAGUCCGACGAUCAUAAUGGCGGCAGCUACGGGGGAUCCUGGACUCUCUAAACUGCAGUUUGCCCCUUUCCGCCGUGCCUUGGAUGUUGGGUUUUGGCAUGAGUUGACCCAGAAGAAGCUGAACGAGUAUCGGCAACAGAGGAUUGAGCAUCA

target: MSI1 full-length (mouse, UniProt Q61474 1-362); test: nsRBNS (natural sequence RNA bind-n-seq); RBNS binding buffer (assumed for nsRBNS): 25 mM Tris pH 7.5, 150 mM KCl, 3 mM MgCl2, 0.01% Triton X-100, 500 ug/ml BSA, 20 U/ml SUPERase-In, 4 C; UNK is unkempt and MSI1 is Musashi-1; names of the RNAs are library labels; protein concentration not given here; high values mean tight binding
Chain of UniProt Q61474 (Q61474 whole entry): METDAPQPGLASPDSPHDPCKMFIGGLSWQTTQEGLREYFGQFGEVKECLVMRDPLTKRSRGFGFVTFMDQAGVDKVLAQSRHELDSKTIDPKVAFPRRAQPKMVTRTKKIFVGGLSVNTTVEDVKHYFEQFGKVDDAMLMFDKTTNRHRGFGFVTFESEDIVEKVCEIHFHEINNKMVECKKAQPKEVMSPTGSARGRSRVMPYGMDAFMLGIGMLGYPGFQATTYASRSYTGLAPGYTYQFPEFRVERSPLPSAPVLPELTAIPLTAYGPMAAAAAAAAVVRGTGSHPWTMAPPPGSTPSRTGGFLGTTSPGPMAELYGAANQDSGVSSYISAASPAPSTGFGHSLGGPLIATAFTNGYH

Point of comparison: B7, binding signal 5.86 enrichment R. Against it:
- B1 — lower, 0.431 enrichment R
- B2 — lower, 0.645 enrichment R
- B3 — lower, 0.537 enrichment R
- B4 — lower, 0.283 enrichment R
- B5 — lower, 0.44 enrichment R
- B6 — lower, 0.402 enrichment R
- B8 — lower, 0.305 enrichment R
- B9 — lower, 0.549 enrichment R
- B10 — lower, 0.414 enrichment R
- B11 — higher, 6.4 enrichment R
- B12 — lower, 0.304 enrichment R
- B13 — lower, 0.354 enrichment R
- B14 — lower, 0.418 enrichment R
